Test [1] has as its target metabotropic glutamate receptor 1 (mGluR1) (mouse (endogenous in brain)) (UniProt P97772). In words: co-IP.
Test [2] addresses metabotropic glutamate receptor 5 (mGluR5) (mouse (endogenous in brain)) (UniProt Q3UVX5). Description: co-IP.

The chains behind the UniProt entries cited, without tags or fusion partners. Residues count along the entry.
UniProt P97772, residues 21-1199: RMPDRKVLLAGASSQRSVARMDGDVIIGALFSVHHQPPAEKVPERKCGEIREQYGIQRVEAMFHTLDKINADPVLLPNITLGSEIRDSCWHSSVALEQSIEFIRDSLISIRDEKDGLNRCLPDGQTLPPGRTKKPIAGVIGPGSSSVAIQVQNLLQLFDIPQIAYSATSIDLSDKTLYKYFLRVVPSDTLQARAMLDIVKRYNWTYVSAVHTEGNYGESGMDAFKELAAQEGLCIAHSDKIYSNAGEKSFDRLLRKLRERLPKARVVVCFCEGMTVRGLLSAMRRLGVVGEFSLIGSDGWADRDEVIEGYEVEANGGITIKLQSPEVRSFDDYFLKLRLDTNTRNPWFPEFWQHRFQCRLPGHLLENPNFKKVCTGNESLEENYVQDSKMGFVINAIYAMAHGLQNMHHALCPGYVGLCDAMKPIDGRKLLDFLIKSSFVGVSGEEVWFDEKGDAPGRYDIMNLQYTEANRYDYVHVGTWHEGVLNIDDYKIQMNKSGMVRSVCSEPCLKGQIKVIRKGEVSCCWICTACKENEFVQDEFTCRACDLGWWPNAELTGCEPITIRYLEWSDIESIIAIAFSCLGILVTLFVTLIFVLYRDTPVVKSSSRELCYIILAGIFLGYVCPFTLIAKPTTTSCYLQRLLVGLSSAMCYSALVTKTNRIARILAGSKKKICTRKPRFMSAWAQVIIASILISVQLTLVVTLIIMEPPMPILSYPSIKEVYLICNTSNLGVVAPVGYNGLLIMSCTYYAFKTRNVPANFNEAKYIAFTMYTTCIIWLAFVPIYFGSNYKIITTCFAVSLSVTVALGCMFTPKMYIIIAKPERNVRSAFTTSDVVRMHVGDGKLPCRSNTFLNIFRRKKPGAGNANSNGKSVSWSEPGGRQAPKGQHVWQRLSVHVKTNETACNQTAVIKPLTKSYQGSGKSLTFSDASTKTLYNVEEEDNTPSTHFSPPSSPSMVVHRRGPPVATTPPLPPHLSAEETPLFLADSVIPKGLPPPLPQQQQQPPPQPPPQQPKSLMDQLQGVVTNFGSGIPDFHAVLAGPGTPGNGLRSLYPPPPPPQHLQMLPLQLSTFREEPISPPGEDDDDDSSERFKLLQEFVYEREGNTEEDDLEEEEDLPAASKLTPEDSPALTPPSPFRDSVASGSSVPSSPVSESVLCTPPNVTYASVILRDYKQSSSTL
UniProt Q3UVX5, residues 19-1203: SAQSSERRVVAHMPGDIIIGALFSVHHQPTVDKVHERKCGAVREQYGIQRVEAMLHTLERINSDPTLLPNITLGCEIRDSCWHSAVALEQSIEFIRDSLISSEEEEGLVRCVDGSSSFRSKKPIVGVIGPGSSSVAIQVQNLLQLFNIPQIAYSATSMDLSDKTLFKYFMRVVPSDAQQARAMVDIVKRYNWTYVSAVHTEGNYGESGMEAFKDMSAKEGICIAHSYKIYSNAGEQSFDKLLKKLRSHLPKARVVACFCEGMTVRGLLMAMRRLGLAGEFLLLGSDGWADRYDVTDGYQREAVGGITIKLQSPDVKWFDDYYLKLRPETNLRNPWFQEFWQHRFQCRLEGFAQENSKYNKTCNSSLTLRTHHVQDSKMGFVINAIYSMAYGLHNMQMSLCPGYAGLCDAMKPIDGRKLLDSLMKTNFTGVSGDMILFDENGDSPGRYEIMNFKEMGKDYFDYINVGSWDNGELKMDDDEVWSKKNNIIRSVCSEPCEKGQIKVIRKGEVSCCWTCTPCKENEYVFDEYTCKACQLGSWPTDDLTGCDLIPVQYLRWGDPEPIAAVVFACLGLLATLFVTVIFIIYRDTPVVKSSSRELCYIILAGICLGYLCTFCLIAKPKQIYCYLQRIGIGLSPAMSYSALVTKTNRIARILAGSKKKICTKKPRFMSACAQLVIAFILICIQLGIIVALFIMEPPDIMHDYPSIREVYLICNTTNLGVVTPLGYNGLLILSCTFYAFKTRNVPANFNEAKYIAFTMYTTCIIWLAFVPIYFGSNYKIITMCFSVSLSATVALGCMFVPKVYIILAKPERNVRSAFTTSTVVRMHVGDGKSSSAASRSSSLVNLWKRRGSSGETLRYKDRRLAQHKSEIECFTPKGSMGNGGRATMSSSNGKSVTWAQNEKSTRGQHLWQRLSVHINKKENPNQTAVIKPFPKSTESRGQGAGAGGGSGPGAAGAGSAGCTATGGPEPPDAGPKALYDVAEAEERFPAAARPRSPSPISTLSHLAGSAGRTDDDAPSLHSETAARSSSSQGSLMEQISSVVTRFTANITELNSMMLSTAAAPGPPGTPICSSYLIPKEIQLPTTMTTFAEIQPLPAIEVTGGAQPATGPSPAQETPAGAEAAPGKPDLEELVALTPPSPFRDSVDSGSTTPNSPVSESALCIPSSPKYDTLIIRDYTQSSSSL

These are yes or no findings as the source states them, for the method shown. In cells and extracts the contact can be indirect. Some entries that bind do so weakly or less than the wild type.

The results in this text go back to article PMC5720820.

“PrP^C overexpressed in tga20 mice (from UniProt P04925 23-230)”: the binding entry in test [1] and in test [2] was “binds” in each case.
